Measured values reported in PubChem BioAssay AID330 (DTP/NCI, 2004).
Inconclusive results and toxic doses are left out. Not every entry of the source has a single result; some have several. The list is limited to them. The source may hold further records. The values listed for one entry are repeats (runs, samples, wells, individuals or studies). Marks in square brackets tell the records apart. Letters count within one entry.

System: P388 leukemia ip, CD2F1 mice, survival T/C
Test: NCI In Vivo Anticancer Drug Screen. Data for tumor model P388 Leukemia (intraperitoneal) in CD2F1 (CDF1) mice
Conditions: endpoint: median survival time, higher = longer survival
[1] = dose: 100.0 mg/kg/injection, schedule: Q01DX009 (ip), vehicle: saline
[2] = dose: 100.0 mg/kg/injection, schedule: Q01DX009 (ip), vehicle: saline with Tween-80

For `CC(=O)N(C)N=Nc1ccc(C)cc1`, the T/C (dose: 200.0 mg/kg/injection, schedule: Q01DX009 (ip), vehicle: saline) was 99 % of control and 154 % of control and the T/C (dose: 400.0 mg/kg/injection, schedule: Q01DX009 (ip), vehicle: saline) was 100 % of control and 185 % of control.

With `COc1cc2cc(c1Cl)N1CC(=O)C(C)(O)C(=O)N(C)C(C)C(=O)OC(CC1=O)C1(C)OC1C(C)C1CC(O)(NC(=O)O1)C(OC)/C=C\C=C(\C)C2OC` (stereo not given) the T/C (dose: 8.0 micrograms/kg/injection, schedule: Q01DX009 (ip), vehicle: distilled water + alcohol) was 108 % of control and 192 % of control.

For `CN=C(N)NN=C(c1ccc(Br)cc1)c1ccc(Br)cc1`, the T/C (dose: 100.0 mg/kg/injection, schedule: Q04DX002 (ip), vehicle: saline with Tween-80) was 121 % of control and 166 % of control.

For `O=c1n(CC2CO2)c(=O)n(CC2CO2)c(=O)n1CC1CO1` (stereo not given), the T/C (dose: 40.0 mg/kg/injection, schedule: Q01DX009 (ip), vehicle: saline) was 120 % of control, 350 % of control, 588 % of control.

`Cc1ccc(NSC(Cl)(Cl)Cl)cc1` was tested, and the T/C [1] was 110 % of control and 151 % of control.

`CCOC(=O)Nc1cc2c(c(N)n1)N=C(c1ccccc1)CN2` was tested, and the T/C (dose: 6.0 mg/kg/injection, schedule: Q01DX005 (ip), vehicle: saline with Tween-80) was 123 % of control and 155 % of control.

`CCc1c2cc(OC)c(OC)cc2cc2c3cc(OC)c(OC)cc3cc[n+]12` (tested in a mixture with another compound) was tested, and the T/C [1] was 99 % of control and 193 % of control.

`Cc1cc2cc3c(=O)[nH]c(=O)nc-3n(CC(O)C(O)C(O)CO)c2cc1C` (stereo not given) was tested, and the T/C (dose: 60.0 mg/kg/injection, schedule: Q01DX005 (ip), vehicle: saline with Tween-80) was 88 % of control, 120 % of control, 158 % of control.

With `COc1cc2cc3c4cc(OC)c(OC)cc4cc[n+]3c(C)c2cc1OC` the T/C (dose: 800.0 mg/kg/injection, schedule: Q04DX003 (ip), vehicle: saline sonified) was 108 % of control, 170 % of control [sample A] and 108 % of control [sample B].

With `Nc1nc(SCc2cccc(Br)c2)c2ncn(C3OC(CO)C(O)C3O)c2n1` (stereo not given) the T/C [2] was 108 % of control and 150 % of control.

`COC(C(=O)C(O)C(C)O)C1Cc2cc3cc(OC4CC(OC5CC(O)C(O)C(C)O5)C(O)C(C)O4)c(C)c(O)c3c(O)c2C(=O)C1OC1CC(OC2CC(O)C(OC3CC(C)(O)C(O)C(C)O3)C(C)O2)C(O)C(C)O1` (stereo not given) was tested, and the T/C (dose: 0.5 mg/kg/injection, schedule: Q01DX009 (ip), vehicle: saline) was 112 % of control and 173 % of control.

In the case of `COC(COC(=O)N1CCN(C=O)CC1)C1=C(N2CC2)C(=O)C(C)=C(N2CC2)C1=O` (stereo not given), the T/C (dose: 6.25 mg/kg/injection, schedule: Q01DX005 (ip), vehicle: saline) is reported as 88 % of control, 275 % of control, 294 % of control.

`[Cl][Pt+2][Cl].[NH-]C1CCCC2CCC[N-]C12` (stereo not given) was tested, and the T/C [2] was 90 % of control and 176 % of control.

With `[C-]#[N+]C1CC2CCC1C2.[C-]#[N+]C1CC2CCC1C2.[C-]#[N+]C1CC2CCC1C2.[C-]#[N+]C1CC2CCC1C2.[C-]#[N+]C1CC2CCC1C2.[C-]#[N+]C1CC2CCC1C2.[Mn]` (stereo not given) the T/C (dose: 0.75 mg/kg/injection, schedule: Q01DX009 (ip), vehicle: saline with Tween-80) was 97 % of control and 163 % of control.

For `ClCC[N+]12CC[N+](CCCl)(CC1)C2`, the T/C (dose: 25.0 mg/kg/injection, schedule: Q01DX009 (ip), vehicle: saline) was 107 % of control, 157 % of control, 159 % of control.

In the case of `CCCCCCCC(=O)OCC(=O)[C@]1(O)Cc2c(O)c3c(c(O)c2[C@@H](OC2CC(N)C(O)C(C)O2)C1)C(=O)c1c(OC)cccc1C3=O` (stereo not given in full), the T/C (dose: 0.25 mg/kg/injection, schedule: Q01DX009 (ip), vehicle: saline with Tween-80) is reported as 118 % of control and 155 % of control and the T/C (dose: 2.0 mg/kg/injection, schedule: Q01DX009 (ip), vehicle: saline with Tween-80) is reported as 114 % of control and 152 % of control.

`CC(C)CC(NC(=O)C(N)Cc1ccc(N(CCCl)CCCl)cc1)C(=O)O` (stereo not given) was tested, and the T/C (dose: 16.0 mg/kg/injection, schedule: Q04DX003 (ip), vehicle: saline with Tween-80) was 90 % of control [sample A] and 157 % of control [sample B].

`COc1cc(N)ccc1Nc1c2ccccc2nc2ccccc12` was tested, and the T/C (dose: 25.0 mg/kg/injection, schedule: Q04DX002 (ip), vehicle: distilled water + Tween-80) was 119 % of control and 165 % of control.
